# Experimental data published in the supplement of paper PMC8728848.
# The other results are listed elsewhere or left out.
# What was measured:
# Assay in all cases: glycan array binding signal (z-score within array); higher = stronger binding
# Conditions in all cases: glycan notation: IUPAC condensed, linker removed
# [1] = target: Neu5Ac(a2-6)Gal(b1-4)GlcNAc(b1-2)Man(a1-3)[Man(a1-6)]Man(b1-4)GlcNAc(b1-4)GlcNAc
# Summary of the method: (§1)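 From the Consortium for Functional Glycomics database, 3228 arrays were curated, keeping only those whose protein sequence was available. Binding is given as a within-array Z-score averaged across arrays sharing a protein sequence and across linkers. Negative Z-scores can be read as non-binding.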
# [2] = target: Neu5Ac(a2-6)Gal(b1-4)GlcNAc(b1-2)Man(a1-3)[Neu5Ac(a2-3)Gal(b1-4)GlcNAc(b1-2)Man(a1-6)]Man(b1-4)GlcNAc(b1-4)GlcNAc
# Summary of the method: as §1
# [3] = target: Neu5Ac(a2-6)Gal(b1-4)GlcNAc(b1-2)Man(a1-3)[Neu5Ac(a2-6)Gal(b1-4)GlcNAc(b1-2)Man(a1-6)]Man(b1-4)GlcNAc(b1-4)GlcNAc
# Summary of the method: as §1
# [4] = target: Neu5Ac(a2-6)Gal(b1-4)GlcNAc(b1-2)Man(a1-3)[Neu5Ac(a2-6)Gal(b1-4)GlcNAc(b1-2)Man(a1-6)]Man(b1-4)GlcNAc(b1-4)[Fuc(a1-6)]GlcNAc
# Summary of the method: as §1
# [5] = target: Neu5Ac(a2-6)Gal(b1-4)GlcNAc(b1-2)Man(a1-6)Man(b1-4)GlcNAc(b1-4)GlcNAc
# Summary of the method: as §1
# [6] = target: Neu5Ac(a2-6)Gal(b1-4)GlcNAc(b1-2)Man(a1-6)[Gal(b1-4)GlcNAc(b1-2)Man(a1-3)]Man(b1-4)GlcNAc(b1-4)GlcNAc
# Summary of the method: as §1
# [7] = target: Neu5Ac(a2-6)Gal(b1-4)GlcNAc(b1-2)Man(a1-6)[GlcNAc(b1-2)Man(a1-3)]Man(b1-4)GlcNAc(b1-4)GlcNAc
# Summary of the method: as §1
# [8] = target: Neu5Ac(a2-6)Gal(b1-4)GlcNAc(b1-2)Man(a1-6)[Man(a1-3)]Man(b1-4)GlcNAc(b1-4)GlcNAc
# Summary of the method: as §1
# [9] = target: Neu5Ac(a2-6)Gal(b1-4)GlcNAc(b1-2)[Neu5Ac(a2-6)Gal(b1-4)GlcNAc(b1-4)]Man(a1-3)[GlcNAc(b1-4)][Neu5Ac(a2-6)Gal(b1-4)GlcNAc(b1-2)[Neu5Ac(a2-6)Gal(b1-4)GlcNAc(b1-6)]Man(a1-6)]Man(b1-4)GlcNAc(b1-4)GlcNAc
# Summary of the method: as §1
# [10] = target: Neu5Ac(a2-6)Gal(b1-4)GlcNAc(b1-2)[Neu5Ac(a2-6)Gal(b1-4)GlcNAc(b1-4)]Man(a1-3)[GlcNAc(b1-4)][Neu5Ac(a2-6)Gal(b1-4)GlcNAc(b1-4)Man(a1-6)]Man(b1-4)GlcNAc(b1-4)GlcNAc
# Summary of the method: as §1
# [11] = target: Neu5Ac(a2-6)Gal(b1-4)GlcNAc(b1-2)[Neu5Ac(a2-6)Gal(b1-4)GlcNAc(b1-6)]Man(a1-6)[Neu5Ac(a2-6)Gal(b1-4)GlcNAc(b1-2)Man(a1-3)][GlcNAc(b1-4)]Man(b1-4)GlcNAc(b1-4)GlcNAc
# Summary of the method: as §1
# [12] = target: Neu5Ac(a2-6)Gal(b1-4)GlcNAc(b1-3)Gal(b1-3)GlcNAc
# Summary of the method: as §1
# [13] = target: Neu5Ac(a2-6)Gal(b1-4)GlcNAc(b1-3)Gal(b1-4)GlcNAc
# Summary of the method: as §1
# [14] = target: Neu5Ac(a2-6)Gal(b1-4)GlcNAc(b1-3)Gal(b1-4)GlcNAc(b1-2)Man(a1-3)[Neu5Ac(a2-6)Gal(b1-4)GlcNAc(b1-3)Gal(b1-4)GlcNAc(b1-2)Man(a1-6)]GalNAc
# Summary of the method: as §1
# [15] = target: Neu5Ac(a2-6)Gal(b1-4)GlcNAc(b1-3)Gal(b1-4)GlcNAc(b1-3)Gal(b1-4)GlcNAc
# Summary of the method: as §1
# [16] = target: Neu5Ac(a2-6)Gal(b1-4)GlcNAc(b1-3)Gal(b1-4)GlcNAc(b1-3)Gal(b1-4)GlcNAc(b1-2)Man(a1-3)[Neu5Ac(a2-6)Gal(b1-4)GlcNAc(b1-3)Gal(b1-4)GlcNAc(b1-3)Gal(b1-4)GlcNAc(b1-2)Man(a1-6)]GalNAc
# Summary of the method: as §1
# [17] = target: Neu5Ac(a2-6)Gal(b1-4)GlcNAc(b1-3)Gal(b1-4)GlcNAc(b1-3)GalNAc
# Summary of the method: as §1
# [18] = target: Neu5Ac(a2-6)Gal(b1-4)GlcNAc(b1-3)Gal(b1-4)GlcNAc(b1-3)[Neu5Ac(a2-6)Gal(b1-4)GlcNAc(b1-3)Gal(b1-4)GlcNAc(b1-6)]GalNAc
# Summary of the method: as §1
# [19] = target: Neu5Ac(a2-6)Gal(b1-4)GlcNAc(b1-3)Gal(b1-4)GlcNAc(b1-6)[Gal(b1-3)]GalNAc
# Summary of the method: as §1
# [20] = target: Neu5Ac(a2-6)Gal(b1-4)GlcNAc(b1-3)Gal(b1-4)[Fuc(a1-3)]GlcNAc(b1-3)Gal(b1-4)[Fuc(a1-3)]GlcNAc
# Summary of the method: as §1
# [21] = target: Neu5Ac(a2-6)Gal(b1-4)GlcNAc(b1-3)GalNAc
# Summary of the method: as §1
# [22] = target: Neu5Ac(a2-6)Gal(b1-4)GlcNAc(b1-3)[Neu5Ac(a2-6)Gal(b1-4)GlcNAc(b1-6)]GalNAc
# Summary of the method: as §1
# [23] = target: Neu5Ac(a2-6)Gal(b1-4)GlcNAc(b1-6)GalNAc
# Summary of the method: as §1
# [24] = target: Neu5Ac(a2-6)Gal(b1-4)GlcNAc(b1-6)[Gal(b1-3)GlcNAc(b1-3)]Gal(b1-4)Glc
# Summary of the method: as §1
# [25] = target: Neu5Ac(a2-6)Gal(b1-4)GlcNAc(b1-6)[Gal(b1-3)]GalNAc
# Summary of the method: as §1
# [26] = target: Neu5Ac(a2-6)Gal(b1-4)GlcNAc6S
# Summary of the method: as §1
# [27] = target: Neu5Ac(a2-6)GalNAc
# Summary of the method: as §1
# [28] = target: Neu5Ac(a2-6)GalNAc(b1-4)GlcNAc
# Summary of the method: as §1
# [29] = target: Neu5Ac(a2-6)GalNAc(b1-4)GlcNAc6S
# Summary of the method: as §1
# [30] = target: Neu5Ac(a2-6)GlcNAc(b1-4)GlcNAc
# Summary of the method: as §1
binder,measurement,setting,value
"ECL (Erythrina cristagalli), Q6YD91 (protein) VETISFSFSEFEPGNNDLTLQGAAIITQSGVLQLTKINQNGMPAWDSTGRTLYTKPVHIWDMTTGTVASFETRFSFSIEQPYTRPLPADGLVFFMGPTKSKPAQGYGYLGVFNNSKQDNSYQTLAVEFDTFSNPWDPPQVPHIGIDVNSIRSIKTQPFQLDNGQVANVVIKYDASSKILLAVLVYPSSGAIYTIAEIVDVKQVLPEWVDVGLSGATGAQRDAAETHDVYSWSFHASLPETND",glycan array binding signal (z-score),[1],-0.234
same,glycan array binding signal (z-score),[2],-0.246
same,glycan array binding signal (z-score),[3],-0.244
same,glycan array binding signal (z-score),[4],-0.225
same,glycan array binding signal (z-score),[5],-0.364
same,glycan array binding signal (z-score),[6],-0.087
same,glycan array binding signal (z-score),[7],-0.29
same,glycan array binding signal (z-score),[8],-0.436
same,glycan array binding signal (z-score),[9],-0.325
same,glycan array binding signal (z-score),[10],-0.195
same,glycan array binding signal (z-score),[11],-0.477
same,glycan array binding signal (z-score),[12],-0.312
same,glycan array binding signal (z-score),[13],-0.267
same,glycan array binding signal (z-score),[14],0.195
same,glycan array binding signal (z-score),[15],-0.344
same,glycan array binding signal (z-score),[16],0.334
same,glycan array binding signal (z-score),[17],-0.177
same,glycan array binding signal (z-score),[18],1.51
same,glycan array binding signal (z-score),[19],0.138
same,glycan array binding signal (z-score),[20],-0.189
same,glycan array binding signal (z-score),[21],-0.194
same,glycan array binding signal (z-score),[22],-0.136
same,glycan array binding signal (z-score),[23],-0.164
same,glycan array binding signal (z-score),[24],-0.261
same,glycan array binding signal (z-score),[25],-0.109
same,glycan array binding signal (z-score),[26],-0.501
same,glycan array binding signal (z-score),[27],-0.481
same,glycan array binding signal (z-score),[28],-0.3
same,glycan array binding signal (z-score),[29],-0.061
same,glycan array binding signal (z-score),[30],-0.382
